# Experimental data taken from PubChem BioAssay (NCI).
#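 Interpolation was linear, between the two tested concentrations surrounding the appropriate level; five concentrations were tested over 48 hours in 96-well plates. Abbreviation: GI50, concentration required for 50% inhibition of growth. TGI: total growth inhibition.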
# System: NCI-H322M lung
# Assay: growth of human tumour cells (NCI), 48 h
Structure (SMILES),GI50 [µM],TGI [µM]
CS(=O)(=O)c1nccc(-c2c(-c3ccc(F)c(OCCc4ccc(F)cc4)c3)nc3sccn23)n1,10.6,24.3
COc1ccc([C@H]2C(=O)N(c3cc(OC)c(OC)c(OC)c3)[C@@H]2c2ccc(OC)c(O)c2)cc1,0.0678,> 100
O=C1[C@H]2Cc3c([nH]c4ccccc34)[C@@H](c3ccc(Br)cc3)N2C(=O)CN1C1CCN(Cc2ccccc2)CC1,9.33,> 25
